# Results: PubChem BioAssay AID686978 (National Center for Advancing Translational Sciences (NCATS), 2013)
# “And” between values parts separate entries of the source, which are not always exact repeats. Equal values may be shown once. Out of some 420,000 compounds screened, about 64,000 (15%) were called active. Inconclusive means that the source gave no clear call. Such entries were picked first, then a sample of the others. The call rests on the fitted dose curve; in most records, active means well fitted inhibition curve with a large enough effect; inconclusive means small, poorly fitted or top-dose-only effect; inactive means flat fitted curve, though single readings scatter. Where the call is inconclusive, the potency comes from a doubtful curve fit.
# Experiment: qHTS for Inhibitors of human tyrosyl-DNA phosphodiesterase 1 (TDP1): qHTS in cells in absence of CPT; further: nearly all actives have a fitted effect of over 55% in size
# Conditions: DT40 Tdp1-/- hTDP1 cells, no CPT, ATP luminescence, 48 h; activity change, negative = growth inhibition: at 46.2 µM (top of the series) unless noted
# How it was run: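 DT40 Tdp1-/-;hTDP1 cells, no CPT (DMSO vehicle only), 400 cells/well; compounds pin-transferred; ≥48 hr, 37 °C; CellTiter-Glo 30 min RT dark, luminescence read.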
# On the % scale 0 is the no-effect control and ±100 the full control effect; potency means the concentration at half of the fitted maximal effect; tags describe the fitted curve by direction and shape.
Structure (SMILES),Potency,"activity change, negative = growth inhibition"
CCc1nc2ccc(C(=O)Nc3cccc(NS(C)(=O)=O)c3)cn2c1N(C=O)CCC(C)C,"inconclusive: 20.6 µM [inhibitor, single point]",–
CCc1sc(C(=O)Nc2cccnc2)cc1Br,–,inactive: -7.3%
Cc1nn(C(=O)c2ccccc2)c(C)c1Sc1ccc(Cl)cc1,active: 8.2 µM,–
CCSc1ccc(C(=O)Nc2ccc(Br)cn2)cc1[N+](=O)[O-],"inconclusive: 25.9 µM [inhibitor, single point]",–
COCCNC(=O)CN(C(=O)CCC(=O)Nc1ccccn1)c1cc(C)ccc1C,–,inactive: 2.19%
CCNC(=O)C1CCCN(C(=O)c2ccc3ccccc3c2)CC1 (centres undefined),–,inactive: -8.02%
C[C@H]1COC(=O)[C@H](CC(=O)OC(C)(C)C)C/C=C\C[C@H](CC(=O)N(CCO)Cc2ccccc2)C(=O)N1,–,inactive: -10.3%
COc1ccc(C2C3=C(CC(C)(C)CC3=O)Oc3ncn(CC(C)C)c(=N)c32)cc1 (centres undefined),"inconclusive: 16.4 µM [inhibitor, partial curve]",–
Cc1nn(Cc2nc(-c3cccs3)no2)c(C)c1Br,–,inactive: -27.1%
C=C(C)C1CC=C(C)/C(=N/NC(=O)CNc2ccc(OCC)cc2)C1 (centres undefined),"inconclusive: 2.06 µM [inhibitor, partial curve, poor fit]",–
COc1ccc2c(=O)c3c(=O)n(Cc4ccco4)c(-c4ccc(C)cc4)nc3oc2c1,"inconclusive: 29.1 µM [inhibitor, single point]",–
COC(=O)C1=C(C)NC(=O)/C1=C\c1cc(C)n(-c2c(C)cccc2C)c1C,"inconclusive: 14.6 µM [inhibitor, partial curve]",–
Cc1ccccc1C(=O)NNC(=S)NC(=O)c1cccs1,active: 18.4 µM,–
COc1ccc(C2CC(=O)NC(=O)C2)cc1,–,inactive: -0.287%
Cc1ccc(S(=O)(=O)N2CCN(c3nc(-c4ccc(CN5CCNCC5)s4)nc4ccccc34)CC2)cc1,active: 22.4 µM,–
CCN(CC)CCOC(=O)C1(C2CCCCC2)CCCCC1,"inconclusive: 29.9 µM [inhibitor, single point] and inconclusive: 25.9 µM [inhibitor, single point]",–
Cc1ccc([C@H]2N[C@]3(CCCN(Cc4cccn4C)C3=O)[C@H]3C(=O)N(Cc4ccccc4)C(=O)[C@@H]23)cc1,"inconclusive: 8.2 µM [inhibitor, partial curve]",–
COc1ccc(Br)cc1/C=N/NC(=O)Cn1nnnc1N,"inconclusive: 29.1 µM [inhibitor, single point]",–
Cc1ccccc1-n1nc(CSc2nc3ccccc3[nH]2)c(-c2ccccc2)c1N,"inconclusive: 20.6 µM [inhibitor, single point]",–
CCOC(=O)c1cc2sccc2n1CC(=O)OC,–,inconclusive: -33.2% [inhibitor]
CCCCOCCOCCOCc1cc2c(cc1CCC)OCO2,"inconclusive: 43.3 µM [inhibitor, single point]",–
CCn1nnnc1SCC(=O)NCc1ccc2c(c1)OCO2,"inconclusive: 6.51 µM [inhibitor, single point]",–

Structure (SMILES),Potency,"activity change, negative = growth inhibition"
CNC(=O)NC(=O)CSc1nnc(-c2ccco2)n1Cc1ccccc1,–,inactive: -19.1%
O=c1cc(-c2ccccc2)oc2c(O)c(O)ccc12,"inconclusive: 20.6 µM [inhibitor, single point]",–
Cc1ccc(NS(=O)(=O)c2ccc(C)c(NC(=O)COc3ccccc3)c2)c(C)c1,"inconclusive: 18.4 µM [inhibitor, single point]",–
COc1ccc(Oc2cn[nH]c2-c2ccc(O)cc2O)cc1,"inconclusive: 20.6 µM [inhibitor, single point]",–
Cc1ccc(CNC(=O)CN2C(=O)NC(C)(c3cccc(Br)c3)C2=O)cc1 (centres undefined),–,inconclusive: -30.9% [inhibitor]
Nc1nc(Cl)cc(NCCc2ccc(O)cc2)n1,"inconclusive: 32.6 µM [inhibitor, partial curve, poor fit]",–
O=c1c2ccccc2n(Cc2ccc(Cl)cc2)c(=O)n1Cc1ccco1,"inconclusive: 13 µM [inhibitor, partial curve]",–
O=C1C(CCCNC(=S)NCc2ccccc2)NC(=S)N1Cc1ccccc1 (centres undefined),–,inactive: -25.3%
CC(C)(C)NC(=O)COc1coc(CN2CCN(C(=O)c3ccco3)CC2)cc1=O,–,inactive: -4.7%
Cc1ccc(S(=O)(=O)N(CC(=O)NCc2ccco2)C2CCCCC2)cc1,–,inactive: -22.3%
CCNc1nc(SCCOc2ccc(Br)cc2)nc(N(C)C)n1,active: 14.6 µM,–
COCC(=O)Nc1nc(-c2ccc(-c3ccccc3)cc2)cs1,"inconclusive: 3.66 µM [inhibitor, partial curve, poor fit]",–
CN(C(=O)c1cccc(NC(=O)Cc2ccc(NC(=O)C3CCN(C(=O)C4CCCC4)CC3)cc2)c1)C1CC1,"inconclusive: 13 µM [inhibitor, single point]",–
CCOc1ccc(CCNC(=O)c2cn(C)c3ccc(S(=O)(=O)N4CCOCC4)cc3c2=O)cc1OCC,"inconclusive: 25.9 µM [inhibitor, single point] and inconclusive: 29.1 µM [inhibitor, single point]",–
COc1cc(/C=C(\C(=O)O)c2ccc(S(=O)(=O)N3CCCC3)s2)ccc1OCCC(C)C,"inconclusive: 29.1 µM [inhibitor, single point]",–
CC(Sc1nnc(Cc2ccccc2)o1)C(=O)NC1(C#N)CCCCC1 (centres undefined),–,inactive: -29.8%
COCCNC(=O)C1CC(c2ccc(C(F)(F)F)cc2)=NO1 (centres undefined),"inconclusive: 23.1 µM [inhibitor, single point]",–
CCCC(=O)Nc1ccc(S(=O)(=O)N2CCc3ccccc32)cc1,"inconclusive: 18.4 µM [inhibitor, single point]",–
CC(C)Cc1ccc(C(C)NC(=O)c2ccc(=O)[nH]c2)cc1 (centres undefined),"inconclusive: 18.4 µM [inhibitor, single point]",–
C=CCN(CC=C)S(=O)(=O)c1ccc(NC(=S)NC(=O)c2ccco2)cc1,active: 18.4 µM,–
CCOc1cc(CN2CCCC(C(=O)c3cccc(C(F)(F)F)c3)C2)ccc1O (centres undefined),active: 25.9 µM,–
O=C(Nc1cc(-c2nc3ncccc3o2)ccc1Cl)c1ccco1,–,inconclusive: -35.8% [inhibitor]
